We go through 52 molecules from PMC12040169 (PLOS Biology, 2025).

This is one part of the list.

The test system of the assay is T1, C. trachomatis L2/434/Bu expressing GFP (CTL2-GFP).
T1 construct: L2/434/Bu GFP intracellular growth in HeLa cells
Also noted: species or system HeLa; C. trachomatis total inclusion area by high-content imaging, normalised to DMSO. Conditions: total inclusion area; 28.5 h, 10 µM; inhibitor. The procedure, abridged: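 High-content imaging followed the bulk GFP/resorufin measurement: fixed, Hoechst-stained cells were scored for GFP inclusions and host nuclei per well. Total inclusion area and count served as growth proxies, nuclei number as the viability proxy. MIC calculation matched the bulk assay.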
Regarding `COc1ccccc1C1NC(=O)COC12CCN(Cc1ccccc1)CC2` (stereo not shown) [CBK092265], the “% of control remaining” value was found to be 87.9561.
For `Cn1cnc2c1c(=O)n(CCCN1C(=O)C3(CC(=O)N(Cc4ccccc4)C3=O)c3cc(F)ccc31)c(=O)n2C` (stereo not shown) [CBK075717] the value was 129.947.
For `CSc1nnc(-c2cccc(C)c2)n1CC(C)C` [CBK076764T] the value was 21.4185; for `O=C(NCc1ccco1)c1cnoc1-c1ccc(F)cc1` [CBK154960], 85.9353; for `CC(C)CN(Cc1ccc2c(c1)OCO2)C(=O)NCc1ccc2c(c1)OCO2` [CBK159071], 100.518.
For `O=c1cc(-c2ccccc2)nc(N2CCOCC2)[nH]1` [CBK003840] the value was 89.115; for `CCN(CC)C(=O)Cc1ccc(NC(=O)NCc2cnn(C)c2)cc1` [CBK304918], 35.2523.
Regarding `O=C(c1cc[nH]n1)N1CCOCC1` [CBK027868], the “% of control remaining” value was 107.191.
With `Cn1c(=O)oc2ccccc2c1=O` [CBK015658] the figure was 49.0959.
For `CN(C)CCN(C)c1cncc(-c2cccs2)n1` [CBK065679] the value was 106.993; for `CCCCc1noc(C(C)S(=O)(=O)Cc2csc(CCCC)n2)n1` (stereo not shown) [CBK305431], 96.4362.
With `COc1cc(F)ccc1-c1ccnc2[nH]c(=O)ccc12` [CBK073727] the figure was 99.0454; with `Cc1ccc(C2(CN3CCN(CC4CCOC4)CC3)CC2)cc1` (stereo not shown) [CBK282479], 108.016.
On to `Cc1ccc(C2Nc3ccccc3C3=NCCCN32)o1` (stereo not shown) [CBK284488], for which the “% of control remaining” value was 46.7753.
For `CC(C)Cc1cc(CNC(=O)C(C)n2cc(Cl)cn2)on1` (stereo not shown) [CBK281524] the value was 101.549; for `CCn1cc(C(=O)O)c(=O)c2cc(F)c(N3CCN(C(=S)Nc4ccc(F)c(Cl)c4)CC3)cc21` [CBK267921], 108.988.
In the case of `c1coc(-c2nccnc2NCc2cccs2)c1` [CBK037340], the “% of control remaining” value is 105.63.
For `COc1ccc([C@@]23CCC(NC(=O)Nc4ccc(OCc5ccccc5)cc4)C[C@@H]2N(C)CC3)cc1OC` (stereo partly shown) [CBK047551T] the value was 90.3834; for `CCN(CC)CCn1c2ccc(C)cc2c2nc(C)sc21` [CBK269764C], 26.8339; for `CCCCCOc1ccc(Nc2ccc(-c3cc4ccccc4o3)cn2)cc1` [CBK036828], 89.3181.
With `O=C(NC1(C(F)(F)F)NC(=O)N(CCc2ccccc2)C1=O)c1ccco1` (stereo not shown) [CBK267482] the figure was 88.9798; with `Cc1ccc2c(c1)C1(CC(=O)N(C)C1=O)C(=O)N2CCCOc1ccccc1` (stereo not shown) [CBK075496], 107.933.
On to `N#Cc1ccsc1NC(=O)CN1CCN(c2cccc(Cl)c2)CC1` [CBK306192], for which the “% of control remaining” value stood at 51.876.
For `O=C(/C=C/c1ccc2c(c1)OCO2)NCCSCc1c(F)cccc1Cl` [CBK265239] the value was 86.551; for `O=C1CSC(c2cn(-c3ccccc3)nc2-c2ccc(Br)cc2)N1Cc1ccccc1` (stereo not shown) [CBK263146], 107.12.
For `CC(C)(c1ccccc1)c1ccc(OCCOc2ccc(/C=C3\SC(=S)NC3=O)cc2)cc1` [CBK264378] the value was 109.944.
With `CC1(C(=O)O)CC(C)(C(=O)O)CC(C)(C(=O)O)C1` (stereo not shown) [CBK266107] the figure was 77.4244.
Take `Cc1nc2sccn2c(=O)c1NC(=O)c1ccccn1` [CBK287665]: the “% of control remaining” value is 80.7509.
For `COc1ccc(-c2cnc(N)nc2C2CCCN(C(=O)CCCc3ccccc3)C2)cc1` (stereo not shown) [CBK286091] the value was 102.396; for `COc1ccc(OCC(=O)N2CCN(S(=O)(=O)c3ccccc3[N+](=O)[O-])CC2)cc1` [CBK264213], 106.219.
For `CN(C)CC1CCCCN1S(=O)(=O)c1ccc(C(C)(C)C)cc1` (stereo not shown) [CBK051347] the value was 113.871.
For `Cc1noc(C)c1C(=O)NCCc1ccc(S(N)(=O)=O)cc1` [CBK268143] the value was 104.124; for `NC(=O)CCNC(=O)c1ccc2[nH]ccc2c1` [CBK149082], 96.3434; for `CO/N=C\c1c(CO)cnc(C)c1O` [CBK022776], 77.1181.
On to `CC(=O)NS(=O)(=O)c1ccc(Nc2ccc([N+](=O)[O-])c3nonc23)cc1` [CBK261443], for which the “% of control remaining” value is 96.3868.
`CC(C)(C)c1n[nH]c(C2CN(C(=O)CCc3cscn3)CCO2)n1` (stereo not shown) [CBK305205]: the “% of control remaining” value is 7.559.
With `CC(=O)c1ccc(-c2cnc(N)c(N3CCC[C@@H]3CO)n2)s1` [CBK063438] the figure was 105.78.
With `CC(=O)Nc1nc(-c2ccccc2C)ccc1C(=O)NC1CCCCC1` [CBK106327] the figure was 108.723; with `Cc1c(Cl)cccc1S(=O)(=O)Nc1c(C(=O)N2CCOCC2)[nH]c2ccccc12` [CBK050076], 102.407.
With `O=C1NN(c2ccc(F)c(Cl)c2)C(=O)/C1=C/c1ccc(-c2ccc(Cl)cc2)o1` [CBK095978], the “% of control remaining” value came to 62.2634.
With `CCOCCn1cnc2sc(C(=O)NCc3ccccn3)c(C)c2c1=O` [CBK071857] the figure was 106.207; with `CN1C(=O)/C(=C2\SC(=S)N(C(CC(=O)O)C(=O)O)C2=O)c2ccccc21` (stereo not shown) [CBK261012], 64.6544; with `FC(F)(F)Oc1ccc(-c2nccnc2OCC2COc3ccccc3O2)cc1` (stereo not shown) [CBK106845], 93.0571.
With `C#C[C@H]1C[N@@]2CC[C@H]1C[C@@H]2CNS(=O)(=O)c1ccc(NC(C)=O)cc1` [CBK288752] the figure was 76.0018; with `Cc1cc(C)c2c(OCC(=O)N(C)CC(=O)NC(C)C)nn(C)c2n1` [CBK304931], 53.6001; with `O=C(NCCCN1CCCC(O)C1)N1CCCN(Cc2cccs2)CC1` (stereo not shown) [CBK307116], 18.1744.
For the molecule `Cc1c2cn[nH]c(=O)c2c(C)n1-c1ccccc1` [CBK018349], the “% of control remaining” value came to 47.8997.
For `O=C(O)CCCC(=O)Nc1ccc(Cc2ccncc2)cc1` [CBK300493] the value was 91.8762.
For `Cc1ccc(-c2ccc(CCC(=O)O)[nH]2)cc1` [CBK264820] the value was 101.104.
With `CCC(=O)Nc1nc(-c2ccc(OC)cc2)cs1` [CBK070494] the figure was 99.6056; with `CN(C)c1nc(N(C)CC2(CO)CCOCC2)ncc1F` [CBK307091], 102.664.
`c1ccc2c(c1)OCC(COc1cncc(OC3CCN(CC4CCCCC4)C3)n1)O2` (stereo not shown) [CBK084387]: the “% of control remaining” value was found to be 69.7919.
